# In PubChem BioAssay AID492948 (National Center for Advancing Translational Sciences (NCATS), 2010):
# This list was built around the results that the source calls inconclusive (neither active nor inactive); the mix of calls is not that of the screen. No potency is given beside an inconclusive call; the fits are too rough. Calls of active or inactive are those of the source. The call rests on the fitted dose curve; in most records, active means well fitted activation curve with a large enough effect; inconclusive means small, poorly fitted or top-dose-only effect; inactive means no such curve, though single readings can be large or run the other way.
# Test: qHTS Assay for Agonists of the Relaxin Receptor RXFP1: V1B Hit Validation;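 further: counter-screen in HEK293 cells expressing V1B rather than RXFP1 for selectivity; nearly all actives have a fitted effect of over 65% in size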;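 on activation: cAMP accumulation with PDE4 inhibitor Ro 20-1724 present during compound exposure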
# Conditions: HEK293 V1B cells, cAMP TR-FRET, 30 min; series mostly up to 115 µM
# Excerpt: NIH Chemical Genomics Center [NCGC]
# NIH Molecular Libraries Probe Production Centers Network [MLPCN]
# Assay Submitter (PI): Alexander Agoulnik
# The relaxin hormone is involved in the variety of biological functions in normal tissues and diseases. The role of relaxin is well-established in female reproduction and parturition, mammary gland and endometrial development, maintenance of myometrial quiescence during pregnancy. Relaxin signaling through its G protein-coupled receptor (GPCR) RXFP1 results in ECM remodeling through regulation of collagen deposition, cell invasiveness, proliferation and overall tissue homeostasis. […] Recombinant human relaxin (rhRlx) is currently being tested in clinical trials as a protective agent in congestive heart failure, in treating severe preeclampsia, and as an anti-fibrotic agent in systemic sclerosis.
# Upon relaxin binding RXFP1 activation leads to the activation of adenylate cyclase (AC) via Gs. cAMP will activate PKA, which phosphorylates many signaling proteins. Thus, detection of cAMP increase is an easy and reliable indication of relaxin receptor activation. To screen for agonists of the relaxin receptor, a HEK293T cell line stably transfected with RXFP1 was used. RXFP1 activation was assayed by changes in cAMP levels as detected with a time-resolved fluorescence energy transfer (TR-FRET) cAMP detection kit.
# This assay measures activation of a cell expressing […], another GPCR targeted by relaxin, to determine the selectivity of compounds for RXFP1.
# NCGC Assay Protocol Summary:
# This is a cell-based assay for cAMP second messenger response to screen for agonists of the RXFP2 receptor. The assay was conducted in the presence of a PDE4 inhibitor (Ro 20174). The cells were lysed and the cAMP levels were measured with a TR-FRET cAMP kit. Presence of cAMP in the cell lysate disrupts binding between the cryptate-labeled anti-cAMP and d2-labeled cAMP pair, leading to a decrease in the TR-FRET signal. Data were normalized to the controls for basal activity (buffer only) and 100% activity (29 nM porcine relaxin). The EC50 values were determined from concentration-response data modeled with the standard Hill equation
# 1536-well assay protocol for the HEK293 V1B cAMP assay:
# (1) Add 3 ul HEK293 RXFP2 cell culture. 2000 cells/well in DMEM/F12, 10% FBS, 1x Pen/Strep (dispensed offline with MultiDrop Combi).
# (3) Add 23 nl compounds in DMSO solution. Final concentration was 0.5 - 58 uM.
# (4) Incubate 30 min at 37C, 5% CO2.
# (5) Add 1 ul cAMP-d2 in lysis buffer (HTRF cAMP HiRange kit, CisBio).
# (6) Add 1 ul anti-cAMP antibody-cryptate in lysis buffer (HTRF cAMP HiRange kit, CisBio).
# (7) Incubate 30 min at room temperature.
# (6) Detect the assay plate in a ViewLux plate reader (PerkinElmer) with Ex=320 nm, Em1=615 nm and Em2=665 nm.
# Keywords: relaxin, RXFP1, RXFP2, G-protein coupled receptor, cAMP, agonist, high throughput screening, MLSMR, MLSCN, NIH Roadmap, qHTS and NCGC
# Potency means the concentration at half of the fitted maximal effect; tags describe the fitted curve by direction and shape.
row,SMILES,Potency
1,O=C1/C(=C/c2ccc(O)c(O)c2)Oc2cc(O)ccc21,"inconclusive [activator, partial curve]"
2,COc1ccc(C(C)=O)cc1Cn1cnc2c(cnn2C)c1=O,"inconclusive [activator, partial curve]"
3,CCN(CC)S(=O)(=O)c1ccc(C)c(NC(=O)Cn2cnc3cc([N+](=O)[O-])ccc3c2=O)c1,active: 34.6 µM
4,Cc1cc(NC(=O)CSc2ncnc3c2cnn3-c2cccc(Cl)c2)no1,"inconclusive [activator, partial curve, poor fit]"
5,COc1ccc(C(=O)Nc2ccc(Cl)cc2C(=O)NCc2ccco2)cc1,"inconclusive [activator, single point]"
6,COc1ccc(NC(=O)CSc2ccc3nnc(-c4cccnc4)n3n2)cc1OC,"inconclusive [activator, partial curve]"
7,COc1ccc(CNC(=O)CN2C(=O)NC(C)(c3cccc(Br)c3)C2=O)cc1 (stereo not given),inactive
8,O=C(Nc1ccccc1C(=O)NCc1ccc(Cl)cc1)c1ccco1,"inconclusive [activator, partial curve, poor fit]"
9,O=C(CSc1ccc2nnc(-c3cccnc3)n2n1)Nc1cccc(F)c1,"inconclusive [activator, partial curve]"
10,CCCCn1c(SCC(=O)N2CCOCC2)nc2c1c(=O)n(C)c(=O)n2C,"inconclusive [activator, partial curve]"
11,CC(NC(=O)CCCc1nnc2n(C)c(=O)c3sccc3n12)c1ccccc1 (stereo not given),"inconclusive [activator, partial curve]"
12,CC1(C)Cc2c(sc3ncnc(NN)c23)CO1,"inconclusive [activator, partial curve, poor fit]"
13,CCOC(=O)c1nnn2c1nc(SCC(C)=O)c1ccccc12,"inconclusive [activator, partial curve]"
14,CCCn1c(SCC(=O)Nc2ccc(NC(=O)CC)cc2)nc2c1c(=O)n(C)c(=O)n2C,"inconclusive [activator, partial curve]"
15,CCCn1c(SCC(=O)Nc2ccc(NC(C)=O)cc2)nc2c1c(=O)n(C)c(=O)n2C,active: 38.9 µM
16,CC(=O)Nc1ccc(NC(=O)CSc2ccc3nnc(-c4ccccn4)n3n2)cc1,"inconclusive [activator, partial curve]"
17,Cc1cc2c(SCC(=O)NCC3CCCO3)ncnc2s1 (stereo not given),"inconclusive [activator, partial curve]"
18,Cc1ccc(-n2c(=S)[nH]c3sc4c(c3c2=O)CCC4)cc1,active: 6.15 µM
19,CC(C)OC(=O)CNc1n[nH]c(=S)[nH]c1=O,"inconclusive [activator, partial curve]"
20,Cc1c(Cl)cccc1NC(=O)CSc1ccc(-c2cccnc2)nn1,"inconclusive [activator, partial curve]"

row,SMILES,Potency
1,O=C(Nc1ccccc1C(=O)NCc1ccccc1)c1ccco1,inactive
2,CCn1c(SCC(=O)Nc2c(C)n(C)n(-c3ccccc3)c2=O)nc2c1c(=O)n(C)c(=O)n2C,"inconclusive [activator, partial curve]"
3,CCN(CC)S(=O)(=O)c1cccc(C(=O)NCCCn2ccnc2)c1,"inconclusive [activator, partial curve]"
4,CN(Cc1ccco1)S(=O)(=O)c1cc(F)ccc1CN1C(=O)c2cccnc2C1=O,"inconclusive [activator, partial curve]"
5,CCC(=O)Nc1cccc(NC(=O)CSc2nc3c(c(=O)n(C)c(=O)n3C)n2C)c1,"inconclusive [activator, partial curve]"
6,CCS(=O)(=O)c1nc(S(=O)(=O)c2ccc(C)cc2)c(N2CC(C)OC(C)C2)s1 (stereo not given),"inconclusive [activator, partial curve]"
7,CN(C(=O)COC(=O)Cn1cnc2c1c(=O)n(C)c(=O)n2C)C1(C#N)CCCCC1,"inconclusive [activator, partial curve]"
8,O=C(Nc1ccccc1C(=O)Nc1ccc(F)cc1)c1ccco1,inactive
9,Cn1c(N)c(C(=O)CSc2nnc(NC3CCCCC3)s2)c(=O)n(C)c1=O,inactive
10,CN1C(=O)c2ccc(C(=O)Nc3ccc(Br)cn3)cc2C1=O,active: 21.8 µM
11,Cc1ccccc1NC(=O)c1ccccc1NC(=O)c1ccco1,inactive
12,CCOC(=O)N1CCN(C(=O)CSc2ccc3nnc(-c4cccnc4)n3n2)CC1,"inconclusive [activator, partial curve]"
13,COC(=O)c1cc(CN2C(=O)c3ccccc3C2=O)c(O)c([N+](=O)[O-])c1,active: 30.9 µM
14,O=[N+]([O-])c1cc2c(c(CSc3ncccn3)c1)OCOC2,"inconclusive [activator, full curve]"
15,O=C(O)CNC(=O)c1ccccc1NC(=O)c1ccco1,inactive
16,CCN(CC)CCCCCC(=O)Nc1ccccc1C(=O)Nc1ccccc1,inactive
17,O=S(=O)(Nc1ccccc1C(F)(F)F)c1ccc(-c2ccccn2)s1,active: 21.9 µM
18,O=C(NCCc1nnc2ccc(SCC(=O)N3CCCC3)nn12)c1ccc(F)cc1,"inconclusive [activator, partial curve]"
19,Cc1cccc(NC(=O)c2ccccc2NC(=O)c2ccco2)c1,inactive
20,CCCC(=O)Nc1ncnc2c1ncn2[C@@H]1O[C@@H]2OP(=O)(O)OC[C@H]2[C@H]1OC(=O)CCC,active: 0.868 µM
